This is one part of the list. The main result of the screen is listed elsewhere. These columns were measured beside it and carry no call. Compounds called inactive in the main read-out are mostly missing here. Residues, ends and D or L forms follow the SMILES beside them. *: point of attachment. Cbz = O=C(OCc1ccccc1)*

By inhibition is commonly meant the relative decrease from the control value, in per cent.

A short description of this assay: beta-lactam sensitization of Mtb H37Rv, H37Rv (AID 434955).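 Also: growth measured after seven days incubation then overnight dye step; 0% = bacteria only wells and 100% = bacteria with antibiotic.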 To be noted: M. tuberculosis H37Rv growth with meropenem, percent inhibition; measured here: primary screen without meropenem; at 25 µM.
For the compound `COc1cccc(NC(=O)CSc2ccc3nnc(-c4cccnc4)n3n2)c1`, the inhibition turned out to be 6.73%.
For `CC1CCC(C(=O)NC(C(=O)N2CCC(N3CCCCC3)CC2)C(C)C)CC1` (stereo not drawn), the inhibition is -10.8%.
For the compound `COCC1CCCCN1C(=O)c1ccc2oc(CCCc3ccccc3)nc2c1` (stereo not drawn), the inhibition was 8.49%.
For `CCN(CC1CCCO1)C(=O)c1cc(COc2ccc(F)cc2F)on1` (stereo not drawn) the value was 27.4%; for `CCOc1ccc(Cc2c(Cl)nc(N)nc2Cl)cc1`, 0.15%; for `O=C(Nc1ccccc1N1CCCC1)c1ccc2c(c1)OCO2`, 37.4%.
For `CC1CCN(c2ccc(-c3cccs3)nn2)CC1` the value was 1.23%; for `O=S(=O)(NCCC1=CCCCC1)c1ccc(F)cc1`, 9.18%; for `Cc1ccc(-n2ncc3c2CCCC3NC(=O)CSc2ccccn2)cc1C` (stereo not drawn), -4.12%.
The result for `Cc1ccc(C(=O)COC(=O)CCN2C(=O)C3C4CC(C(Br)C4Br)C3C2=O)cc1` (stereo not drawn) reads -2.6%.
For `CCC1CCCCN1CCCNC(=O)Cn1ncc2c(C)n(Cc3ccccc3Cl)c(C)c2c1=O` (stereo not drawn), the inhibition is -2.87%.
For `COc1ccccc1C(=O)Nc1sc2c(c1C(=O)NCc1ccco1)CCCC2` the value was 22.2%; for `CC(=C/c1ccccc1)/C=C1/SC(N2CCOCC2)=NC1=O`, 0.16%.
Turning to `O=C(c1cccc(-n2cnnn2)c1)N1CC=C(c2ccccc2)CC1`, the inhibition is -1.45%.
As for `CC[C@@]1(c2ccccc2OC)C(=O)N(C(=O)OC)N1C(=O)OC`, the inhibition was -0.64%.
In the case of `CCn1c(=O)cc(OCC(=O)N(C)c2ccccc2F)c2ccccc21`, the inhibition was -2.89%.
For `CCOC(=O)NC1c2ccccc2Oc2ccccc21` the value was 3.33%; for `O=C(N/N=C/C(Br)=C\c1ccccc1)c1n[nH]c2c1CCC2`, 82.3%; for `NC(=O)C1CCN(c2nc(C3CC3)nc3c2nnn3Cc2ccccc2Cl)CC1`, 2.03%.
For `CCOC(=O)N1CCC(NC(=O)CC2C(=O)NCCN2Cc2ccccc2)CC1` (stereo not drawn) the value was 1.83%; for `O=S(=O)(NC(=NCc1ccccc1)c1ccccc1)c1ccc(Br)cc1`, 9.62%; for `CCCC(=O)N(CCN1CCOCC1)c1nc2c(C)cccc2s1`, 3.59%.
Consider `C/C(=N/NC(=O)c1ccccn1)c1ccncc1`, for which the inhibition came out at 39.2%.
`Clc1ccc(OCc2nn3c(-c4ccccc4)nnc3s2)c(Cl)c1`: the inhibition is 3.42%.
The result for `O=C1OCc2ccc(NC(=O)c3ccccc3C(=O)O)cc21` reads -4.04%; that for `CSc1ncccc1C(=O)NC1CCN(Cc2ccccc2)CC1`, -19%.
For `COc1ccc(C(=O)Nc2nnc(SCC(=O)NCc3ccco3)s2)c(OC)c1` the value was 2.15%; for `Cc1nc(-c2cccc(NS(=O)(=O)c3cccc4ccccc34)c2)cs1`, -4.52%.
For `COc1cccc(CN2CC(C(=O)NC3CCC(O)CC3)CCC2=O)c1` (stereo not drawn) the value was -6.8%.
`COc1cccc(-c2ccc(NC(=O)C3CCCN(Cc4cc(C)[nH]n4)C3)cc2)c1` (stereo not drawn): the inhibition stood at 4.82%.
For `CC(C)(C)c1ccc(C(=O)N2CCN(C(=O)c3ccco3)CC2)cc1` the value was -0.56%; for `CCOC(=O)COc1nc(-c2ccc(Cl)cc2)cc(-c2ccco2)c1C#N`, -2.24%; for `O=C(C1CCC(Cn2c(=S)[nH]c3ccccc3c2=O)CC1)N1CCOCC1` (stereo not drawn), 1.39%.
For the compound `COc1ccc(-c2nc3c(c(SCC(=O)N4CCOCC4)n2)COC(C)(C)C3)cc1`, the inhibition is 2.06%.
For `CCC(CC)c1nnc(NC(=O)c2ccc(S(=O)(=O)N3CCc4ccccc4C3)cc2)s1` the value was 0.9%; for `O=C(CSc1nnc(COc2ccccc2)o1)N1CCN(c2ccccc2)CC1`, 42.4%.
With `Cc1ccc(NC(=O)CCN2C(=O)C3C4CCC(C4)C3C2=O)cc1Cl` (stereo not drawn), the inhibition came to 79.4%.
On to `Cc1ccc(C(=O)NCC2(c3ccccc3)CCCC2)cc1`, for which the inhibition came out at 34.2%.
As to `CC1(C)Cc2c(cnn2-c2ccc(F)cc2)C(NC(=O)CCN2CCCCO2)C1` (stereo not drawn), the inhibition came to 3.25%.
With `COc1ccccc1-n1c(SCC(=O)Nc2nnc(C)s2)nc2c(c1=O)SCC2`, the inhibition is 1.06%.
Take `CCc1ccc(-c2cc3c(=O)n(CC(=O)NCCCN4CCN(C)CC4)ncn3n2)cc1`: the inhibition stood at 4.12%.
Regarding `CCC1CCCCN1CCCNC(=O)CN1C(=O)c2cccnc2Oc2ccc(C)cc21` (stereo not drawn), the inhibition was -7.28%.
As to `COC(=O)CCC(NC(=O)OCc1ccccc1)C(=O)NC(CC(C)C)C(=O)OC` (stereo not drawn) (Cbz-Glu(OMe)-Leu-OMe; configuration not given here), the inhibition was -5.3%.
The result for `CCCCOC(=O)C1C2C=CC3(CN(CCc4ccccc4)C(=O)C13)O2` (stereo not drawn) reads -14.6%.
The result for `CC(C)(C)c1ccc(-c2nc(C#N)c(N3CCC(C(N)=O)CC3)o2)cc1` reads 69%; that for `Fc1ccc(C2CC(c3ccco3)n3ncnc3N2)cc1` (stereo not drawn), 10.2%; that for `O=C1CC(c2cccs2)c2cc3c(cc2N1)OCO3` (stereo not drawn), -8.67%.
The result for `CN(C(=O)CC1C(=O)NCCN1Cc1ccc2ccccc2c1)C1CCOCC1` (stereo not drawn) reads 0.43%; that for `O=C(NCc1ccc(N2CCCC2=O)cc1)C1CCC(=O)N(Cc2ccccc2F)C1` (stereo not drawn), -1.21%.
In the case of `COCC1CCN(C(=O)CCc2nnc(C3(c4ccc(Cl)cc4)CCC3)o2)C1` (stereo not drawn), the inhibition was determined as 7.62%.
`O=C(Nc1ccc(N2CCOCC2)cc1)Nc1ccc2nc(-c3ccco3)c(-c3ccco3)nc2c1`: the inhibition turned out to be 2.51%.
With `CC1CCN(c2ccc(-c3cccc(NC(=O)C(F)(F)F)c3)nn2)CC1`, the inhibition is 4.01%.
For `Cc1ccccc1NC(=O)c1cccc2nccnc12` the value was 3.09%.
Take `CCOC(=O)C1=C(C)OC(N)=C(C#N)C1c1c(C)nn(-c2ccccc2)c1Cl` (stereo not drawn): the inhibition was -3.55%.
For `CCOc1ccccc1NC(=O)CCN(c1ccc(C)cc1)S(=O)(=O)c1ccccc1` the value was 1.4%; for `COC(=O)c1c(NC(=O)Cn2cnc([N+](=O)[O-])n2)sc2c1CCC(C)C2` (stereo not drawn), 8.03%.
For `COc1ccc(N2CCN(CC(=O)c3ccc(Cl)cc3)CC2)cc1` the value was -6.65%; for `COC(=O)c1ccc(/C=N/NC(=O)C(=O)N2CCCCCC2)cc1`, 2.26%; for `O=c1c2cc(N3CCOCC3)ccc2[nH]c(=S)n1CCCN1CCCCC1`, 11.2%.
For `O=C(CSc1nnc(CNC(=O)c2cccc(C(F)(F)F)c2)o1)NC1CCCC1` the value was -1.68%; for `O=C(N1CCc2[nH]c3ccccc3c2C1)C(F)(F)F`, 18.2%; for `CCOc1ccccc1-c1nn2c(Cc3ccccc3)nnc2s1`, 9.22%.
With `Cc1cc(C)c(NC(=O)C(C)Sc2nc3ccc(N4C(=O)c5ccccc5C4=O)cc3s2)c(C)c1` (stereo not drawn), the inhibition was -0.24%.
For the compound `Cc1ccc(S(=O)(=O)N2CCN(c3ccc(C(=O)N4CCOCC4)cc3[N+](=O)[O-])CC2)cc1`, the inhibition turned out to be 1.87%.
With `CN(CC1CCOCC1)C(=O)c1ccc2nc(Cc3cccc(Cl)c3)oc2c1`, the inhibition came out at 1.2%.
For `Cc1cccc(-c2nnc(NC(=O)c3ccc(Cl)cc3)o2)c1` the value was 96.5%.
Regarding `Cc1cc(C(=O)N2CCCC(C(=O)c3ccc(Cl)cc3C)C2)no1` (stereo not drawn), the inhibition was found to be 0.69%.
For `Cc1cccc(N2CCN(C(=O)COCc3cc(-c4ccc5c(c4)OCO5)on3)CC2)c1C` the value was 3.26%.
`CNC(=O)c1c(NC(=O)c2ccc(N3C(=O)CCC3=O)cc2)sc2c1CCC(C)C2` (stereo not drawn): the inhibition worked out at 5.44%.
As for `O=C(Nc1nnc(C2=COCCO2)o1)c1ccc([N+](=O)[O-])s1`, the inhibition was 82.3%.
For `CN1CCOc2ccc(S(=O)(=O)NCCc3ccc(Cl)cc3)cc21` the value was -0.46%; for `Cc1cc(NC(=S)NC(=O)c2ccccc2)ccc1-c1cc2ccccc2oc1=O`, -12.1%.
For the compound `Cc1ccc(CN(C(=O)c2ccco2)C2CCS(=O)(=O)C2)cc1` (stereo not drawn), the inhibition is -3.45%.
For `Cc1ccc(NC(=O)[C@H](C)NC(=O)C2CCN(C(=O)[C@@H](NC(=O)OC(C)(C)C)C(C)C)CC2)cc1` the value was 2.15%.
The result for `COCCn1c(=O)[nH]c2cc(C(=O)NCc3ccccc3)ccc2c1=O` reads 10.6%.
The result for `C=CCOc1ccccc1CN1CCC(Oc2ccc(C(=O)N3CCCCC3)cc2)CC1` reads 5.09%; that for `COCCSc1nc2sc3c(c2c(=O)n1-c1ccccc1)CCN(C)C3`, 12.2%; that for `CCC(=O)Nc1nnc(SCC(=O)NCC2CCCO2)s1` (stereo not drawn), 4.23%.
Consider `N#Cc1cccc(NC(=O)Cn2c3[n+](c4ccc(C(F)(F)F)cc42)CCCCC3)c1`, for which the inhibition stood at 2.1%.
`COC(=O)Cc1nnc(SCC(=O)Nc2ccccc2)c2ccccc12`: the inhibition stood at 1.45%.
For `COC(=O)C1=C(O)/C(=C\c2ccc(OCC(=O)Nc3ccccc3)cc2)N=C1C` the value was 3.25%; for `Cc1[nH]c(C)c(S(=O)(=O)N(C)Cc2ccccc2)c1C(=O)N1CCCCC1`, 0.1%.
For `CCCN(C(=O)C(C)Oc1cccc(Cl)c1)c1c(N)n(Cc2ccccc2)c(=O)[nH]c1=O` (stereo not drawn) the value was -0.12%.
For the compound `O=S(=O)(/N=C(/Nc1ccccn1)c1ccccc1)c1ccc(Cl)cc1`, the inhibition is 1.86%.
For `CC(C)(C)C1CCc2onc(C(=O)NCc3ccc(F)cc3)c2C1` (stereo not drawn) the value was -7.8%; for `CCOCCCNC(=O)C1CCN(S(=O)(=O)c2c(C)noc2/C=C\c2ccc(OC)cc2)CC1`, -4.74%; for `CCCCCCOc1ccc(CN2CCN(C)CC2)cc1`, -1.62%.
For `CCCCCn1c(S(=O)(=O)O)nc2ccccc21`, the inhibition is -5.39%.
The result for `COC(=O)CCCCCC(CCC(=O)OC)NC(C)=O` (stereo not drawn) reads -14.1%.
As to `Cc1cccc(CNC(=O)c2ccc3nc(Cc4ccccc4F)oc3c2)n1`, the inhibition worked out at 3.72%.
Consider `N#CC1=C2N=C(N)c3ccccc3N2C2=C(C(=O)CCC2)C1c1ccc(Cl)cc1` (stereo not drawn), for which the inhibition stood at 74.3%.
On to `Cc1ccc(S(=O)(=O)N2CCN(C(=O)COC(=O)c3ccc(C(C)(C)C)cc3)CC2)c(C)c1`, for which the inhibition stood at 39.2%.
The result for `Cc1cc(C(F)F)n2nc(C(=O)Nc3sc4c(c3C(N)=O)CCC4)nc2n1` reads 37%; that for `CN(C)c1ccc(/C=N/NC(=O)c2cc(-c3ccc4c(c3)OCO4)n[nH]2)cc1`, -5.04%; that for `CC(C)N1CCN(C(=O)c2ccc(OC3CCN(CCc4ccccc4)CC3)cc2)CC1`, 5.63%.
The result for `COCCNC(=O)c1ccc(CS(=O)(=O)c2ccc(OC)cc2)o1` reads 0.24%.
For `COCCc1nn2c(=O)cc(COC(=O)c3cc(OC)c(OC)c(OC)c3)nc2s1` the value was -4.46%.
Take `O=C(Nc1nc2ccccc2[nH]1)c1ccccc1F`: the inhibition turned out to be 21.4%.
Take `COc1ccccc1N1CC(C(=O)Nc2nnc(SCC(=O)N3CCCC3)s2)CC1=O` (stereo not drawn): the inhibition was -1.53%.
For `O=C(CNC(=O)c1ccccc1)NC1(C(=O)NC2CCCC2)CCCCC1` the value was 7.54%.
For the compound `CCN(CCCNC(=O)c1cn(CC)c2ccc(S(=O)(=O)N(C)C)cc2c1=O)c1cccc(C)c1`, the inhibition is -6.44%.
In the case of `C=CCC1(CC=C)CCCN1C(=O)c1cc(COc2cncc(Cl)c2)on1`, the inhibition is -3.16%.
On to `CCCC(C)C(=O)Nc1nnc(C)s1` (stereo not drawn), for which the inhibition is -2.72%.

Source of the values: PubChem BioAssay AID434955 (Southern Research Specialized Biocontainment Screening …, 2010).
